# Experimental data from the supplement of paper PMC8728848.
# This is one part of the list.
# B1: GS13455A-bfa-343-25-343 (Bacteroides fragilis) (protein)
# chain: KDEIQIVDQDTSWQMDNKYIEEDIREQLGIDPFTDLVYLGYYGNPYTQLEAINDLVNTTLVGKNELSFKVKVTKPYKEDIKVNLMKEDKLVTDFPEMAEGIPLFPSENCTFEGGVLKAGELETTVKLTLKDVEKLNNLSGYVMAIKLTMEGSHEHLAIARTRSSYFVKLNLSIRLDNIDSSNKKIEGKGFNKEISFKSDIRPDKLGSLNDGNFTANNWYTSNANNYLTIILPEKQSLKGFRLDTNTSPSGSYMLKSCRVMVETPDGNWVNHGVFDRKSMDGIAYISFKKPVECTKVRFENMMAFNGRFSVDVNEVTAFR
# What was measured:
# Experiment in all cases: glycan array binding signal (z-score within array); higher = stronger binding
# Conditions in all cases: glycan notation: IUPAC condensed, linker removed
# [1] = biological target: Fuc(a1-2)Gal(b1-4)GlcNAc(b1-3)Gal(b1-4)GlcNAc(b1-3)Gal(b1-4)GlcNAc
# Method in brief: (§1)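 Glycan array binding is given as a within-array Z-score, which can be read as non-binding when negative. The arrays, 3228 of them, came from the Consortium for Functional Glycomics database and were retained only where the protein sequence was available. Z-scores were averaged across arrays of the same protein sequence at different concentrations or buffers and across linkers.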
# [2] = biological target: Fuc(a1-2)Gal(b1-4)GlcNAc(b1-3)GalNAc
# Method in brief: as §1
# [3] = biological target: Fuc(a1-2)Gal(b1-4)GlcNAc(b1-3)[Fuc(a1-2)Gal(b1-4)GlcNAc(b1-6)]GalNAc
# Method in brief: as §1
# [4] = biological target: Fuc(a1-2)Gal(b1-4)GlcNAc(b1-3)[Fuc(a1-3)[Gal(b1-4)]GlcNAc(b1-6)]Gal(b1-4)Glc
# Method in brief: as §1
# [5] = biological target: Fuc(a1-2)Gal(b1-4)GlcNAc(b1-6)GalNAc
# Method in brief: as §1
# [6] = biological target: Fuc(a1-2)Gal(b1-4)GlcNAc6S
# Method in brief: as §1
# [7] = biological target: Fuc(a1-2)Gal(b1-4)[Fuc(a1-3)]GlcNAc
# Method in brief: as §1
# [8] = biological target: Fuc(a1-2)Gal(b1-4)[Fuc(a1-3)]GlcNAc(b1-2)Man(a1-3)[Fuc(a1-2)Gal(b1-4)[Fuc(a1-3)]GlcNAc(b1-2)Man(a1-6)]Man(b1-4)GlcNAc(b1-4)[Fuc(a1-6)]GlcNAc
# Method in brief: as §1
# [9] = biological target: Fuc(a1-2)Gal(b1-4)[Fuc(a1-3)]GlcNAc(b1-2)[Fuc(a1-2)Gal(b1-4)[Fuc(a1-3)]GlcNAc(b1-4)]Man(a1-3)[Fuc(a1-2)Gal(b1-4)[Fuc(a1-3)]GlcNAc(b1-2)Man(a1-6)]Man(b1-4)GlcNAc(b1-4)GlcNAc
# Method in brief: as §1
# [10] = biological target: Fuc(a1-2)Gal(b1-4)[Fuc(a1-3)]GlcNAc(b1-3)Gal(b1-4)[Fuc(a1-3)]GlcNAc
# Method in brief: as §1
# [11] = biological target: Fuc(a1-2)Gal(b1-4)[Fuc(a1-3)]GlcNAc(b1-3)Gal(b1-4)[Fuc(a1-3)]GlcNAc(b1-3)Gal(b1-4)[Fuc(a1-3)]GlcNAc
# Method in brief: as §1
# [12] = biological target: Fuc(a1-2)Gal(b1-4)[Fuc(a1-3)]GlcNAc(b1-3)GalNAc
# Method in brief: as §1
# [13] = biological target: Fuc(a1-2)Gal(b1-4)[Fuc(a1-3)]GlcNAc(b1-3)[Neu5Ac(a2-6)Gal(b1-4)GlcNAc(b1-6)]Gal(b1-4)Glc
# Method in brief: as §1
# [14] = biological target: Fuc(a1-2)Gal3S(b1-4)GlcNAc
# Method in brief: as §1
# [15] = biological target: Fuc(a1-2)Gal6S(b1-3)GlcNAc
# Method in brief: as §1
# [16] = biological target: Fuc(a1-2)Gal6S(b1-3)GlcNAc6S
# Method in brief: as §1
# [17] = biological target: Fuc(a1-2)Gal6S(b1-4)Glc
# Method in brief: as §1
# [18] = biological target: Fuc(a1-2)Gal6S(b1-4)Glc6S
# Method in brief: as §1
# [19] = biological target: Fuc(a1-2)[Gal(a1-3)]Gal
# Method in brief: as §1
# [20] = biological target: Fuc(a1-2)[Gal(a1-3)]Gal(b1-3)GalNAc
# Method in brief: as §1
# [21] = biological target: Fuc(a1-2)[Gal(a1-3)]Gal(b1-3)GalNAc(b1-3)Gal(a1-4)Gal(b1-4)Glc
# Method in brief: as §1
# [22] = biological target: Fuc(a1-2)[Gal(a1-3)]Gal(b1-3)GlcNAc
# Method in brief: as §1
# [23] = biological target: Fuc(a1-2)[Gal(a1-3)]Gal(b1-3)GlcNAc(b1-2)Man(a1-3)[Fuc(a1-2)[Gal(a1-3)]Gal(b1-3)GlcNAc(b1-2)Man(a1-6)]Man(b1-4)GlcNAc(b1-4)GlcNAc
# Method in brief: as §1
# [24] = biological target: Fuc(a1-2)[Gal(a1-3)]Gal(b1-3)GlcNAc(b1-2)Man(a1-3)[Fuc(a1-2)[Gal(a1-3)]Gal(b1-3)GlcNAc(b1-2)Man(a1-6)]Man(b1-4)GlcNAc(b1-4)[Fuc(a1-6)]GlcNAc
# Method in brief: as §1
# [25] = biological target: Fuc(a1-2)[Gal(a1-3)]Gal(b1-3)GlcNAc(b1-3)GalNAc
# Method in brief: as §1
# [26] = biological target: Fuc(a1-2)[Gal(a1-3)]Gal(b1-3)GlcNAc(b1-6)GalNAc
# Method in brief: as §1
# [27] = biological target: Fuc(a1-2)[Gal(a1-3)]Gal(b1-4)Glc
# Method in brief: as §1
# [28] = biological target: Fuc(a1-2)[Gal(a1-3)]Gal(b1-4)GlcNAc
# Method in brief: as §1
# [29] = biological target: Fuc(a1-2)[Gal(a1-3)]Gal(b1-4)GlcNAc(b1-2)Man
# Method in brief: as §1
# [30] = biological target: Fuc(a1-2)[Gal(a1-3)]Gal(b1-4)GlcNAc(b1-2)Man(a1-3)[Fuc(a1-2)[Gal(a1-3)]Gal(b1-4)GlcNAc(b1-2)Man(a1-6)]Man(b1-4)GlcNAc(b1-4)GlcNAc
# Method in brief: as §1
binder,measurement,setting,value
B1,glycan array binding signal (z-score),[1],0.02
same,glycan array binding signal (z-score),[2],-0.221
same,glycan array binding signal (z-score),[3],-0.235
same,glycan array binding signal (z-score),[4],-0.35
same,glycan array binding signal (z-score),[5],0.14
same,glycan array binding signal (z-score),[6],0.165
same,glycan array binding signal (z-score),[7],-0.329
same,glycan array binding signal (z-score),[8],1.01
same,glycan array binding signal (z-score),[9],-0.141
same,glycan array binding signal (z-score),[10],-0.292
same,glycan array binding signal (z-score),[11],0.186
same,glycan array binding signal (z-score),[12],1.05
same,glycan array binding signal (z-score),[13],-0.309
same,glycan array binding signal (z-score),[14],-0.268
same,glycan array binding signal (z-score),[15],0.046
same,glycan array binding signal (z-score),[16],-0.073
same,glycan array binding signal (z-score),[17],-0.133
same,glycan array binding signal (z-score),[18],0.254
same,glycan array binding signal (z-score),[19],0.254
same,glycan array binding signal (z-score),[20],-0.263
same,glycan array binding signal (z-score),[21],-0.182
same,glycan array binding signal (z-score),[22],0.31
same,glycan array binding signal (z-score),[23],-0.738
same,glycan array binding signal (z-score),[24],-0.117
same,glycan array binding signal (z-score),[25],-0.237
same,glycan array binding signal (z-score),[26],0.925
same,glycan array binding signal (z-score),[27],-0.212
same,glycan array binding signal (z-score),[28],0.862
same,glycan array binding signal (z-score),[29],0.072
same,glycan array binding signal (z-score),[30],-0.881
